Measured values: PubChem BioAssay AID686979 (National Center for Advancing Translational Sciences (NCATS), 2013)
The campaign covered roughly 420,000 compounds. About 50,000 (12%) were called active. Inconclusive means that the source gave no clear call. Such entries were picked first, then a sample of the others. Calls come from the whole dose curve; as a rule, active = well fitted inhibition curve with a large enough effect; inconclusive = small, poorly fitted or top-dose-only effect; inactive = flat fitted curve, though single readings scatter. Potencies of inconclusive entries are left out as doubtful fits.

Assay: qHTS for Inhibitors of human tyrosyl-DNA phosphodiesterase 1 (TDP1): qHTS in cells in presence of CPT; note: nearly all actives have a fitted effect of over 55% in size
Details: chicken DT40 Tdp1-/-;hTDP1 cells + 20 nM CPT, ATP luminescence, 48 h; activity change, negative = growth inhibition: at 46.2 µM (top of the series)
Summary of the method: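 Chicken DT40 Tdp1-/- cells stably complemented with human TDP1 were seeded at 400 cells/well in medium containing 20 nM camptothecin, exposed to pin-transferred compounds, and grown at 37 °C for at least 48 hr. Viability was read as ATP luminescence.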
% is set by controls: 0 for no effect and ±100 for the full control effect; potency is the fitted concentration of half-maximal effect; tags give direction and shape of the fitted curve.

For `CC(=O)OCC#CCSc1nc2ccccc2n1C`, which Potency is on record?
Its Potency is “inactive”.

Which Potency does the source give for `OC(c1ccc(-c2ccccc2)cc1)c1ncc(-c2ccccc2)[nH]1` (centres undefined) here?
The Potency was inconclusive [inhibitor, single point].

Which Potency does the source give for `COc1ccc(CCNc2nc(-c3sc(N)nc3C)cs2)cc1OC` here?
Its Potency is inconclusive [inhibitor, single point].

Which Potency does the source give for `Cc1ccc(Cn2c(C)c(CNCc3ccccc3F)c(C(=O)O)c2C)cc1` here?
Its Potency is inconclusive [inhibitor, single point].

For `CCc1ccccc1N(C)C(=O)c1cc2c(s1)-c1c(C)cccc1OC2`, which Potency is on record?
Its Potency is active: 23.1 µM.

Which Potency does the source give for `O=c1oc2cc(Oc3ccc(C(F)(F)F)cc3[N+](=O)[O-])ccc2c2c1CCC2` here?
Its Potency is “inactive”.

With `O=C(NCc1ccco1)NC(=O)c1csc([N+](=O)[O-])c1` as the compound, how does the Potency read?
The Potency was “inactive”.

With `COc1ccccc1C(=O)Nc1ccc(-c2nc3cc(C)cc(C)c3o2)cc1` as the compound, how does the Potency read?
The Potency was “inactive”.

Which Potency does the source give for `COC(=O)C(CSCc1ccccc1)NC(=O)CSc1nc(C)cc(=O)[nH]1` (centres undefined) here?
Its Potency is “inactive”.

With `COc1ccc(CNC(=O)O[C@H]2CN(C(=O)OC(C)C)N(C(=O)OC(C)C)[C@@H]3CN(S(=O)(=O)c4ccc(C)cc4)C[C@]23O)cc1OC` as the compound, how does the Potency read?
The Potency was inconclusive [inhibitor, single point].

For `Cc1ccc(NC(=O)CSc2nc3ccc(NC(=O)c4cccc(Cl)c4)cc3s2)c(C)c1`, which Potency is on record?
The Potency was inconclusive [inhibitor, partial curve].

Which Potency does the source give for `Cc1ccc(C2CC(C(F)(F)F)n3nc(C(=O)Nc4c(C)n(C)n(-c5ccccc5)c4=O)cc3N2)cc1` (centres undefined) here?
Its Potency is inconclusive [inhibitor, single point].

For `CC(C(=O)Nc1ncc([N+](=O)[O-])s1)N1C(=O)c2ccccc2S1(=O)=O` (centres undefined), which Potency is on record?
The Potency was “inactive”.

Which Potency does the source give for `CCOC(=O)c1ccc(N2C(=O)c3n[nH]c(-c4ccco4)c3C2c2cccc(F)c2)cc1` (centres undefined) here?
The Potency was active: 18.4 µM.

Which Potency does the source give for `CN1CCC(C2(O)c3ccccc3CSc3sccc32)CC1` (centres undefined) here?
The Potency was “inactive”.

Which Potency does the source give for `CCCCCCSc1cc(C)nc2ncnn12` here?
Its Potency is active: 16.4 µM.

Which Potency does the source give for `CCOC(=O)C1(Cc2cccc(F)c2)CCN(CCCn2cccn2)CC1` here?
Its Potency is inconclusive [inhibitor, single point].

Which Potency does the source give for `CCCN1CCN(CCCNC(=O)C(CC)n2nc(C)c3sc4ccccc4c3c2=O)CC1` (centres undefined) here?
Its Potency is “inactive”.

For `CCOC(=O)N1CCN(C(=O)COC(=O)C2CCN(S(=O)(=O)c3c(Cl)cccc3Cl)CC2)CC1`, which Potency is on record?
The Potency was “inactive”.

Which Potency does the source give for `CCC[C@H](N[C@@H](C)C(=O)N1[C@H](C(=O)O)C[C@@H]2CCCC[C@@H]21)C(=O)OCC` here?
The Potency was inconclusive [inhibitor, single point].

And the activity change, negative = growth inhibition?
Its activity change, negative = growth inhibition is inconclusive: -30.7% [inhibitor].

For `Cc1nc2c3cc(Cl)ccc3n(CCN3CCOCC3)c2s1`, which Potency is on record?
Its Potency is inconclusive [inhibitor, single point].

With `O=C(O)c1ccc2c3n(nc2c1)-c1ccc(Cl)cc1CO3` as the compound, how does the Potency read?
Its Potency is “inactive”.

For `CC1=C(C(=O)N(C(C)C)C(C)C)CC(CC(=O)NCc2ccco2)C(=O)N1Cc1ccccc1` (centres undefined), which Potency is on record?
The Potency was inconclusive [inhibitor, partial curve].

For `O=C(Nc1ccc(F)cc1)N1CCCC(c2nc3c(nnn3Cc3ccccc3Cl)c(=O)[nH]2)C1` (centres undefined), which Potency is on record?
The Potency was active: 20.6 µM.

For `Cc1[nH]n(-c2ccccc2)c(=O)c1/C=N/NC(=O)c1cccc(F)c1`, which Potency is on record?
The Potency was active: 5.17 µM.

Which Potency does the source give for `NC(c1csc(Nc2nccc(C(F)(F)F)n2)n1)C1CCCCC1` (centres undefined) here?
Its Potency is inconclusive [inhibitor, single point].

For `Cc1ccc(CN(Cc2cccn2-c2nnc(N3CCCC3=O)s2)C(=O)Nc2cc(C)cc(C)c2)cc1`, which Potency is on record?
Its Potency is inconclusive [inhibitor, single point].

For `CN1C(=O)c2ccccc2Sc2ccc(NC(=O)NCc3ccccc3Br)cc21`, which Potency is on record?
The Potency was active: 16.4 µM.

With `COc1cc(OC)cc(-c2cc(NC(C)=O)n[nH]2)c1` as the compound, how does the Potency read?
Its Potency is inconclusive [inhibitor, single point].

Which Potency does the source give for `O=C(CCN1CCCCC1)c1cccc(Cl)c1` here?
Its Potency is active: 20.6 µM.

For `O=C(Cc1cccs1)Nc1ccc(F)cc1`, which Potency is on record?
Its Potency is “inactive”.

Which Potency does the source give for `COc1ccc(-c2noc(CN3CCCCC3)n2)cc1OC` here?
Its Potency is “inactive”.

With `Cc1ccccc1OCC(=O)NC(C)c1ccccc1` (centres undefined) as the compound, how does the Potency read?
The Potency was inconclusive [inhibitor, single point].

With `CC1=CC(=O)[C@@H](OC(=O)Nc2ccc(C)cc2)[C@@H](c2ccccc2Br)N1C` as the compound, how does the Potency read?
The Potency was inconclusive [inhibitor, single point].

Which Potency does the source give for `CC(=O)c1cc(CN2CCC(C(=O)Nc3ccc(-n4nc(C)cc4C)cc3)CC2)cs1` here?
The Potency was inconclusive [inhibitor, partial curve].

With `CCCNC(=O)c1ccc(C)c(NC(=O)C2=C(C)OCCS2)c1` as the compound, how does the Potency read?
The Potency was “inactive”.

For `COc1ccccc1N1CCN(S(=O)(=O)c2ccc([N+](=O)[O-])cc2)CC1`, which Potency is on record?
The Potency was inconclusive [inhibitor, single point].

Which Potency does the source give for `N#CCn1c(C2CCCCC2)nc2ccccc2c1=O` here?
The Potency was inconclusive [inhibitor, single point].

Which activity change, negative = growth inhibition does the source give for `Cn1cccc1C(=O)NC(=O)COC(=O)c1ccc(S(C)(=O)=O)cc1` here?
Its activity change, negative = growth inhibition is inconclusive: -30.3% [inhibitor].

For `CCC(C)(C)NC(=O)C(c1ccc(OC)cc1)N(C(=O)CCC(=O)Nc1cc(C)on1)c1ccc2c(c1)OCO2` (centres undefined), which Potency is on record?
Its Potency is inconclusive [inhibitor, partial curve].

With `CCN(CC)Cc1cc2[nH]c3c4ccc(Cl)cc4ncc3c2cc1OC` as the compound, how does the Potency read?
Its Potency is active: 3.16 µM.

With `CCN(CC)S(=O)(=O)c1ccc(O)c(NC(=O)COc2ccc(S(=O)(=O)N3CCOCC3)cc2)c1` as the compound, how does the Potency read?
The Potency was inconclusive [inhibitor, single point].

With `CCc1ccc(N2CCN(C(=O)c3ccc(OC)c(OC)c3)CC2)cc1` as the compound, how does the Potency read?
Its Potency is inconclusive [inhibitor, single point].

With `O=C(NCc1ccccc1)C12CN(Cc3ccccc3)CC1C(c1ccc([N+](=O)[O-])cc1)=NO2` (centres undefined) as the compound, how does the Potency read?
The Potency was inconclusive [inhibitor, partial curve].

With `N#CC(c1cccc([N+](=O)[O-])c1)C(CC(=O)c1ccccc1)c1ccccc1` (centres undefined) as the compound, how does the Potency read?
The Potency was active: 18.4 µM.

With `Cc1ccc(CN(Cc2ccco2)C(=O)c2ccccc2Cl)o1` as the compound, how does the Potency read?
The Potency was active: 23.1 µM.

Which Potency does the source give for `CC(OC(=O)Cc1cccc(C(F)(F)F)c1)C(=O)Nc1ccc(Cl)cn1` (centres undefined) here?
The Potency was “inactive”.

With `Cn1c(SCC(=O)Nc2ccccc2-c2ccccc2)nnc1-c1ccco1` as the compound, how does the Potency read?
The Potency was inconclusive [inhibitor, single point].

With `COc1ccc(C=C2C=C(C(C)(C)C)C(=O)C(C(C)(C)C)=C2)cc1OC` as the compound, how does the Potency read?
The Potency was inconclusive [inhibitor, single point].

For `CC1(C)CC(=O)C=C(c2n[nH]nc2-c2ccccc2)C1`, which Potency is on record?
Its Potency is “inactive”.

For `CCCn1c(CCC(=O)O)ccc1-c1ccc(OC)cc1`, which Potency is on record?
Its Potency is “inactive”.

Which Potency does the source give for `C=CCOc1ccc(/C=C/C(=O)OC(C)C(=O)Nc2ccc(NC(C)=O)cc2)cc1` (centres undefined) here?
The Potency was “inactive”.

With `O=C(NCCCN1CCOCC1)/C(=C/c1ccco1)NC(=O)c1ccccc1` as the compound, how does the Potency read?
Its Potency is “inactive”.

Which Potency does the source give for `O=C(N/N=C/c1ccc(-c2ccc([N+](=O)[O-])cc2)o1)C(O)c1ccccc1` (centres undefined) here?
The Potency was inconclusive [inhibitor, partial curve].

With `CC(=O)Cc1nsc(NC(=O)c2ccc(Br)o2)n1` as the compound, how does the Potency read?
Its Potency is inconclusive [inhibitor, full curve].

With `CC1Cc2ccccc2N1C(=O)CSc1nnnn1Cc1ccccc1` (centres undefined) as the compound, how does the activity change, negative = growth inhibition read?
The activity change, negative = growth inhibition was inconclusive: -31.1% [inhibitor].

With `Cc1ccc(C(=O)N2CCC(C(=O)c3ccc(F)cc3)CC2)cc1` as the compound, how does the Potency read?
The Potency was inconclusive [inhibitor, single point].

With `CC(=O)c1ccc(NC(=O)c2cn(C)c(=O)c3ccccc23)cc1` as the compound, how does the Potency read?
The Potency was inconclusive [inhibitor, single point].

Which Potency does the source give for `O=C(NCc1cccc(Cl)c1)c1ccc2c(c1)nc1n2CCOC1` here?
The Potency was “inactive”.

Which Potency does the source give for `Cc1ccc(-c2csc(N3CCN(c4cc5c(cc4Cl)nc(-c4ccncc4)n5CCOCCO)CC3)n2)cc1` here?
Its Potency is active: 16.4 µM.

Which Potency does the source give for `N#C/C(=C(\O)c1ccco1)c1ccccn1` here?
Its Potency is “inactive”.

With `C/C(=N\N(Cc1ccccc1)c1ccccc1)c1cccnc1` as the compound, how does the Potency read?
Its Potency is inconclusive [inhibitor, single point].

Which Potency does the source give for `c1cnc2nc(-c3ccc4c(c3)OCO4)cn2c1` here?
Its Potency is “inactive”.

Which Potency does the source give for `CCCCCCC(=O)Nc1nnc(CC)s1` here?
Its Potency is “inactive”.

For `O=C(OCc1cn([C@@H]2C[C@H](c3ccccc3)N(C(=O)c3cccs3)C[C@H]2O)nn1)c1ccccc1`, which Potency is on record?
The Potency was inconclusive [inhibitor, single point].

With `Cc1ccc(CNC(=O)CCCCCNC(=O)N2CCn3c2nc2ccccc23)cc1` as the compound, how does the Potency read?
Its Potency is active: 18.4 µM.

Which Potency does the source give for `CCOC(=O)c1cnc2c(C)c(Cl)ccc2c1N1CCN(CC)CC1` here?
Its Potency is inconclusive [inhibitor, single point].

With `Cc1cccc(N2CCN(C(=O)CCNS(=O)(=O)c3ccc4c(c3)CCN4C(=O)C3CC3)CC2C)c1` (centres undefined) as the compound, how does the Potency read?
The Potency was active: 5.8 µM.

Which Potency does the source give for `CC(C)n1cnc2c(NCc3ccccc3)cc(N[C@H](C)CO)cc21` here?
The Potency was active: 2.31 µM.

For `O=C(Nc1cccc2ccccc12)N1CCCN(c2c(Cl)cncc2Cl)CC1`, which Potency is on record?
The Potency was inconclusive [inhibitor, single point].

With `CCOc1ccc(-n2c(SCC(=O)Nc3cc(C(=O)O)ccc3Cl)nc3ccccc3c2=O)cc1` as the compound, how does the Potency read?
Its Potency is “inactive”.

Which Potency does the source give for `COc1ccc(-c2nc(C(N)=O)c3[nH]c(=O)n(-c4cccc(C)c4)c3n2)c(OC)c1` here?
The Potency was inconclusive [inhibitor, single point].

With `COc1ccc(-c2nc(CCNC(=O)Cc3ccc(F)cc3)cs2)cc1` as the compound, how does the Potency read?
The Potency was active: 14.6 µM.
